Experimental data published in publication PMC4336329 (PLoS ONE, 2015).
About 14,000 (4.5%) of roughly 310,000 compounds showed an effect of 50% or more. The effect is printed as a negative number. This is one part of the list.

biological target: human ether-à-go-go-related gene (hERG) potassium channel (human, UniProt Q12809); assay: primary screen, population patch clamp on CHO cells stably expressing hERG
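Further: peak tail current of the secondary pulse compared with the same well before compound.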

Chain of human ether-à-go-go-related gene (hERG) potassium channel (Q12809 whole entry, looked up): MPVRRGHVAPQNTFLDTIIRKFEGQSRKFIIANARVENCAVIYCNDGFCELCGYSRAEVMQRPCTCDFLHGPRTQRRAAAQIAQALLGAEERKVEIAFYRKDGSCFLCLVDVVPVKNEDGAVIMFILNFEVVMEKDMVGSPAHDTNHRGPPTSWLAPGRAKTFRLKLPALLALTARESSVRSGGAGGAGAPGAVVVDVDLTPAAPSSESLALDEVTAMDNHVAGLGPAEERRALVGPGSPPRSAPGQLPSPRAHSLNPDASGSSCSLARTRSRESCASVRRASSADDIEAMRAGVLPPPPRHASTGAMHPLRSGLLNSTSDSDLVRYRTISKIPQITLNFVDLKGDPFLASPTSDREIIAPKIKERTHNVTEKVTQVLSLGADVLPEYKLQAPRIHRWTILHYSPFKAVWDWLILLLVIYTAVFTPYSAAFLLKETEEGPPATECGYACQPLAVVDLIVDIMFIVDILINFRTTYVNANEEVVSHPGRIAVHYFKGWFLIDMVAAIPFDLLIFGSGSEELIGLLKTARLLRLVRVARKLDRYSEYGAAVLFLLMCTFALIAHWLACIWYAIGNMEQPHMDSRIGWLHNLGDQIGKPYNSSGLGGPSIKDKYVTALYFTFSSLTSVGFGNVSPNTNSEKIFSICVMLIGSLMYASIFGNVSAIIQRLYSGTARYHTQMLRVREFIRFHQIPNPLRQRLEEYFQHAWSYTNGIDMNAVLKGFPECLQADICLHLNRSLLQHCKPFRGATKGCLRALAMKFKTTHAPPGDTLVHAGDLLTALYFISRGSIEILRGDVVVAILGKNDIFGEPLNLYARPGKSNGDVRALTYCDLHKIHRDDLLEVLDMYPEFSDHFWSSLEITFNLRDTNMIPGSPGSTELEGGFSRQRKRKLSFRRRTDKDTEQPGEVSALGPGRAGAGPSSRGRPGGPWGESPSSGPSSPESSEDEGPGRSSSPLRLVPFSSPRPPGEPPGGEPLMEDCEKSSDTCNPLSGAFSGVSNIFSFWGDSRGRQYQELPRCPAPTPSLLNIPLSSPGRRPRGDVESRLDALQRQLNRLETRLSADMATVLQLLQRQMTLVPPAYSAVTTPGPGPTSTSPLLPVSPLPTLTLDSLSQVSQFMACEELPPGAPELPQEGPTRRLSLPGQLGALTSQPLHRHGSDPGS

| SMILES | hERG current change (%, negative = inhibition) at 10uM [%] |
| --- | --- |
| CCN(Cc1ccncc1)C(=O)c1ccc2c(c1)S(=O)(=O)c1ccccc1C2=O | -43.4 |
| CCCCNC(=S)Nc1ccc2cn[nH]c2c1 | -1.62 |
| CCC1CCCCN1C(=O)COc1ccc(S(=O)(=O)N2CCOCC2)cc1Cl (stereo not shown) | -7.78 |
| CCn1c(CNc2ccc(Cl)cc2)nnc1SCc1ccccc1 | -24.6 |
| COc1cc(C2CC(=O)Oc3c2c(=O)n(C)c2ccccc32)ccc1O (stereo not shown) | 14.7 |
| O=C(c1ccccc1)c1ccc(OC(=O)N2CCOCC2)cc1 | -13.3 |
| CC1CCN(S(=O)(=O)c2nnc(NC(=O)c3ccccc3Br)s2)CC1 | -7.76 |
| Cc1ccsc1C1NC(=O)c2ccccc2N1 (stereo not shown) | 5.58 |
| Cc1cccc(NC(=O)CNC(=O)COC(=O)c2ccc(C(C)(C)C)cc2)c1C | -11 |
| O=c1[nH][nH]cc1C=Nc1cc(Cl)ccc1O | -2.16 |
| COc1ccc(CC(=O)NCC2(N3CCCCC3)CCCCC2)cc1 | -11.7 |
| COc1ccc(C2NC(=O)NC(O)(C(F)(F)F)C2C(=O)c2ccc(F)cc2)cc1 (stereo not shown) | 1.58 |
| Cc1ccc(Cc2nc(-c3ccccn3)no2)cc1 | 5.11 |
| C=CCOc1ccc(CNc2nn[nH]n2)cc1 | 22 |
| Cc1ccc(NC(=O)C2CCN(S(=O)(=O)c3cccc4cccnc34)CC2)nc1 | -13.8 |
| CCCN1CCN(CCCNC(=O)CCN2C(=O)COc3ccccc32)CC1 | 4.18 |
| CSc1nc(C)cc(OCNC(=O)c2cccs2)n1 | -0.623 |
| N#Cc1c(N)n[nH]c1CCCN | 7.29 |
| CCCn1c(SCC(=O)Nc2ccc3c(c2)OCCO3)nnc1-c1ccco1 | -66.1 |
| O=C1C2=C(SCCS2)C(=O)N1CCCO | 4.66 |
| CN(C)CCN(Cc1ccco1)C(=O)c1oc2ccccc2c1NC(=O)COc1ccccc1 | -88.7 |
| CCc1ccc(C(=O)NNC(=O)C2CC(=O)N(c3ccc4c(c3)OCCO4)C2)cc1 (stereo not shown) | -7 |

| SMILES | hERG current change (%, negative = inhibition) at 10uM [%] |
| --- | --- |
| CCOc1ccc(C2CC(=O)NC2=O)cc1 (stereo not shown) | 6.09 |
| COCCN1C(=O)/C(=C/c2ccc(Oc3ccc([N+](=O)[O-])cn3)c(OC)c2)SC1=Nc1ccccc1 | -4.34 |
| CCOc1ccc(N(CC(=O)NCc2ccccc2)C(=O)Cn2nnc(-c3ccc(C)o3)n2)cc1 | -6.08 |
| O=C(NC1CCCC1)c1cnc2n(c1=O)CCS2 | 1.7 |
| CCOC(=O)[C@H]1[C@H]2COc3ccc(C)cc3[C@@H]2N2C(=O)CN(Cc3ccc(OC)cc3)C(=O)[C@@]12C | -14.1 |
| Nc1cc(=O)[nH]c(SCC(=O)N2N=C(c3ccc(Cl)cc3)CC2c2ccco2)n1 (stereo not shown) | 2.26 |
| COC(=O)C1=C(c2cccc(OCc3ccccc3)c2)C[C@@H]2CC[C@H]1N2C(=O)NCc1ccc(Cl)cc1 | 14.4 |
| CN1C(=O)c2cccc3c(S(=O)(=O)N(C)C)ccc1c23 | 3.53 |
| O=C1c2cccnc2C(Nc2ccc(S(=O)(=O)N3CCCCCC3)cc2)N1Cc1ccccc1 (stereo not shown) | -9.79 |
| NC(=O)c1cc(N2CC2)c([N+](=O)[O-])cc1[N+](=O)[O-] | -0.332 |
| CC(c1ccco1)N(C(=O)c1ccc(C#N)cc1)c1ccccn1 (stereo not shown) | 1.88 |
| COc1ccccc1-n1c(CNC(=O)c2cccc([N+](=O)[O-])c2C)n[nH]c1=S | 35.6 |
| Cc1cccc(NC(=S)NC(C)C(c2cccs2)N2CCN(C)CC2)c1C (stereo not shown) | -60.5 |
| COc1cccc(NC(=O)NC(C)C2CC3CCC2C3)c1 (stereo not shown) | 3.65 |
| Cl.O=C(O)c1cc([N+](=O)[O-])cc([N+](=O)[O-])c1N1CCN(c2cccc(C(F)(F)F)c2)CC1 | 24 |
| C/C(CC(=O)Nc1cccc(Cl)c1Cl)=N\NC(=O)c1ccccc1C | 5.53 |
| COc1ccc(CC(NC(C)=O)C(=O)NC2CCN(c3nnnn3-c3ccccc3)CC2)cc1 (stereo not shown) | 6.64 |
| CC1(C(=O)O)COC(c2ccc(Cl)cc2)OC1 (stereo not shown) | -25.3 |
| O=C(NC(=S)Nc1ccc(Cl)cn1)c1cc([N+](=O)[O-])ccc1N1CCOCC1 | 11 |
| O=C(C[n+]1cc(-c2ccc(Cl)cc2)n2c1CCC2)N1c2ccccc2Sc2ccccc21.[Cl-] | -22.1 |
| Cc1ccc(C(=O)CSc2nc3ccccc3c(=O)n2-c2ccccc2)s1 | 9.37 |
| Cn1cccc1-c1cc(C(=O)N/N=C/c2ccc(F)cc2)[nH]n1 | -20.5 |

| SMILES | hERG current change (%, negative = inhibition) at 10uM [%] |
| --- | --- |
| O=C(NNC(=O)c1csc(-c2cccnc2)n1)c1ccccc1 | -2.62 |
| COc1cccc(CN(C)Cc2cc(=O)oc3c(C)c(C)ccc23)c1 | 7.46 |
| Cc1nc(CN(C)C(=O)c2cc(COc3ccc4ncccc4c3)on2)cs1 | 5.24 |
| COc1c(F)c(F)c(C(=O)Nc2ccccc2N2CCN(C(=O)C(C)C)CC2)c(F)c1F | 6.51 |
| COCCn1c(SCc2cc(=O)n3ccsc3n2)nnc1-c1ccncc1 | 16.7 |
| Cc1cc(NC(=O)NCc2ccccc2)c(=O)n(Cc2ccc(F)cc2)c1 | 33.1 |
| CCOC(=O)c1cc(NC(=O)Nc2cc(C)ccn2)c(C)nc1C | 7.72 |
| COC(=O)c1cn(NC(=O)/C=C/c2cccc(OC)c2OC)c(=O)c2ccccc12 | 1.59 |
| COc1ccc([N+](=O)[O-])cc1N(CC(O)CN1CCCCC1)S(=O)(=O)c1ccc(C)cc1 (stereo not shown) | -42.7 |
| Cc1nn(C)c(C(=O)Sc2cccc(Cl)c2)c1[N+](=O)[O-] | 13.9 |
| Br.N=C1CCCN1CC(=O)c1ccc(Cl)cc1 | 1.8 |
| O=C(O)CS/C(=C\c1ccc(F)cc1)c1nc2ccccc2s1 | -2.8 |
| O=C(COC(=O)C1CCCCC1)Nc1cc([N+](=O)[O-])ccc1F | 35.5 |
| O=C(CCN1CCOCC1)Nc1ccc2c(c1)CCC2 | -6.34 |
| CCOC(=O)N1CCN(C(=O)CCCn2c(=S)[nH]c3ccsc3c2=O)CC1 | 15 |
| CC(C(=O)Nc1cccnc1)n1cc([N+](=O)[O-])cn1 (stereo not shown) | 17.7 |
| CCCCNC(=O)C1CCC(CNS(=O)(=O)c2cccc3nsnc23)CC1 (stereo not shown) | 7.06 |
| CCCC(CCC)C(=O)O | 10.2 |
| Cc1ccc(N(C)S(=O)(=O)c2ccc(C)cc2)cc1 | -15.6 |
| COc1ccc(C2CC(=O)c3cnc(NC(=O)c4ccco4)nc3C2)cc1 (stereo not shown) | -4.36 |
| O=C(NCCN1CCCCC1)Nc1cccc(Cl)c1Cl | -29.3 |
| O=C(N/N=C/c1cccnc1)C12CC3CC(CC(C3)C1)C2 | 19.1 |

| SMILES | hERG current change (%, negative = inhibition) at 10uM [%] |
| --- | --- |
| O=C(c1cccc2ccccc12)N1CCCCC1 | 16.2 |
| CCOC(=O)N1CCN(C(=O)c2ccc3c(=O)n(Cc4ccccc4)c(=S)[nH]c3c2)CC1 | -43.8 |
| CCC(=O)N1CC2(c3ccccc3)CN(C(=O)CC)CC(c3ccccc3)(C1)C2=O | 5.6 |
| CN(Cc1ccc(Cl)cc1)C(=O)COC(=O)c1ccc(-c2ccc(O)cc2)cc1 | 7.23 |
| CN(Cc1ccccc1Cl)C(=O)c1cnccc1C(F)(F)F | 2.87 |
| O=C(CSc1nnc(-c2ccc(Cl)cc2)n1Cc1ccco1)NCc1ccc2c(c1)OCO2 | -75.3 |
| O=c1c2c(-c3ccccc3)ccnc2[nH]n1-c1ccccc1 | 16.5 |
| COc1ccc(Br)c(C(=O)NNC(=O)c2ccc(NS(=O)(=O)c3cccs3)cc2)c1 | 12.6 |
| Cc1ccc(NC(=O)C2COc3ccccc3O2)cc1C (stereo not shown) | 3.72 |
| Cc1cc(CNC(=S)Nc2ccc(S(=O)(=O)Nc3ncccn3)cc2)nn1C | 8.18 |
| Cc1ccccc1CN1CCC(CNC(=O)Nc2ccc(F)cc2F)CC1 | -31.4 |
| CCOc1ccc(-c2nnn(CC#N)n2)cc1OC | -7.44 |
| CCOC(=O)c1cc(C)sc1NC(=S)Nc1ccccc1 | 10.1 |
| Cc1cc(=O)oc2c(C)c(OCC(=O)NCCc3ccc(S(N)(=O)=O)cc3)ccc12 | 7.3 |
| CC(C)CNC(=S)NC1CC2CCCC(C1)N2Cc1cccs1 (stereo not shown) | -34.8 |
| CCOc1ccc(CN(C)C(=O)c2ccc(NS(=O)(=O)c3ccc4[nH]c(=O)[nH]c4c3)cc2)cc1 | 18.3 |
| COc1cc(OC)cc(-c2nc(-c3ccccc3)no2)c1 | 5.45 |
| CS(=O)(=O)c1ccc2nnn(OCC(=O)Nc3ccc(Br)cc3Br)c2c1 | 7.34 |
| COc1cc2c(cc1NC(=O)COc1ccccc1OC)oc1ccccc12 | 13.8 |
| CC(C)(C)NC(=O)CSc1ncnc2c1nnn2Cc1ccccc1Cl | -13.2 |
| O=C(Nc1cc(Cl)ccc1N1CCCC1)C1=NN(c2ccccc2)C(=O)CC1 | -16.9 |
| CCOC(=O)c1c2c(n(C)c1COC)C(=O)C(=O)c1ccc(Br)cc1-2 | 17.1 |
